Residue numbers refer to the chain shown, from its start. Entries after “also recorded” stand apart in the source; their conditions may differ.
T1: recombinant human CD39 extracellular domain (rhCD39-ECD-His) (Homo sapiens, UniProt P49961)
T1 construct: His (C); purchased R&D Systems
T1 sequence (P49961 38-478 limits assumed): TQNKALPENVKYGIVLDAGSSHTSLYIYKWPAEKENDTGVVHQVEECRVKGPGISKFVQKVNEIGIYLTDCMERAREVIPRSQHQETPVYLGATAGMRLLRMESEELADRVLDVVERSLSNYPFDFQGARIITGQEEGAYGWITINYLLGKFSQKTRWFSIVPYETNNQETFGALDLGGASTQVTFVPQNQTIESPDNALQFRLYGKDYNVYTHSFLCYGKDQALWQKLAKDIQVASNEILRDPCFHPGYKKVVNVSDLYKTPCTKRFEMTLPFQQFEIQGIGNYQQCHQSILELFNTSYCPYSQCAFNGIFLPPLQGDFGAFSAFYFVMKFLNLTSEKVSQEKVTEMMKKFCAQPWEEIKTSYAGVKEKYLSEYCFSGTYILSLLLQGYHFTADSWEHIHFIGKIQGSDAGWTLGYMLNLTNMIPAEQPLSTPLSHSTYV

T2: hCD39-ECD (Homo sapiens, UniProt P49961)
T2 sequence (P49961 38-478 limits assumed): T1 sequence (P49961 38-478 limits assumed)

T3: human CD39 on CHO CD39 cells (Homo sapiens, UniProt P49961)
T3 construct: expressed in transfected cells; host or cells: Chinese Hamster Ovary K1 (CHO)
T3 sequence (P49961 1-510): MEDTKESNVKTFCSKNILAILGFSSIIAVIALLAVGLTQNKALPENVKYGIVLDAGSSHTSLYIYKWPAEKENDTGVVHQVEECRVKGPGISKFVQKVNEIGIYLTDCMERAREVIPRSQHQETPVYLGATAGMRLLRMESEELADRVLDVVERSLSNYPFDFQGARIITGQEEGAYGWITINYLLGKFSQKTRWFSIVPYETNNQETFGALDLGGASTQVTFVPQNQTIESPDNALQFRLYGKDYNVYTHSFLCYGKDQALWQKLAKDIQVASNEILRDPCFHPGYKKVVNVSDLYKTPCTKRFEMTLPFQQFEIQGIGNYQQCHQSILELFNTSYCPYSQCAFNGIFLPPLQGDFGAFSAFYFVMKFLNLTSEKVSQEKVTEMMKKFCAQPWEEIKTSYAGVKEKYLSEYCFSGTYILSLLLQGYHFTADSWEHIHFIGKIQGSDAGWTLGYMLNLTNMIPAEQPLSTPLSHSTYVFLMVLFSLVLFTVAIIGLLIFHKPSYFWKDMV

T4: CD39 expressed on MEL-28 cells (Homo sapiens, UniProt P49961)
T4 construct: endogenous in cells; host or cells: MEL-28
T4 sequence (P49961 1-510): T3 sequence (P49961 1-510)

T5: human-mouse CD39 chimeras (Homo sapiens, UniProt P49961, D150A/E143Q/E153S/L144S/N158S/R147E/R154T/S157K/V151A)
T5 construct: expressed in transfected cells; host or cells: CHO cells
T5 sequence (P49961 1-510 E143Q/L144S/R147E/D150A/V151A/E153S/R154T/S157K/N158S): T3 sequence (P49961 1-510) with E143Q, L144S, R147E, D150A, V151A, E153S, R154T, S157K, N158S

B1: 27549: anti-hCD39 antibody that inhibits ECD ATPase activity but not cellular CD39; separate bin (antibody)
heavy: QVQLVESGGGVVQPGRSLRLSCAASGFTFSSYGMNWVRQAPGKGLEWVAVIWYDGSNKYYADSVKGRFTISRDNSKNTLYLQMNSLRAEDTAVYYCARDLGGYSYGEPYYYYYGMDVWGQGTTVTVSSASTKGPSVFPLAPCSRSTSESTAALGCLVKDYFPEPVTVSWNSGALTSGVHTFPAVLQSSGLYSLSSVVTVPSSSLGTKTYTCNVDHKPSNTKVDKRV[human IgG4 Fc with S228P (EU numbers) left out here]
light: EIVLTQSPGTLSLSPGERATLSCRASQSVSSDYLAWYQQKPGQAPRLLIYGASSRATGIPDRFSGSGSGTDFTLTISRLEPEDFAVYYCQQAHSSPYTFGGGTKVEIKRTVAAPSVFIFPPSDEQLKSGTASVVCLLNNFYPREAKVQWKVDNALQSGNSQESVTEQDSKDSTYSLSSTLTLSKADYEKHKVYACEVTHQGLSSPVTKSFNRGEC
modifications: Synthetic HC, 27549; Synthetic LC, 27549
notes: separate bin
B2: 31418: inhibitory anti-CD39 antibody, contacts E143-N158 incl. D150 and E153 (antibody)
heavy: QVQLVQSGAEVKKPGASVKVSCKASGYTFKSYEMHWVRQAPGQGLEWMGRINPSGGSTWYAQKFQGRVTMTRDTSTSTVYMELSSLRSEDTAVYYCARGKREGGTEYLRHWGQGTLVTVSSASTKGPSVFPLAPCSRSTSESTAALGCLVKDYFPEPVTVSWNSGALTSGVHTFPAVLQSSGLYSLSSVVTVPSSSLGTKTYTCNVDHKPSNTKVDKRV[human IgG4 Fc with S228P (EU numbers) left out here]
light: EIVLTQSPGTLSLSPGERATLSCRASQSVSSSYLAWYQQKPGQAPRLLIYGASSRATGIPDRFSGSGSGTDFTLTISRLEPEDFAVYYCQQYYFYITFGGGTKVEIKRTVAAPSVFIFPPSDEQLKSGTASVVCLLNNFYPREAKVQWKVDNALQSGNSQESVTEQDSKDSTYSLSSTLTLSKADYEKHKVYACEVTHQGLSSPVTKSFNRGEC
modifications: Synthetic HC, 31418; Synthetic LC, 31418
notes: D150 and E153

Experiments:
[1] = biological target: T1, recombinant human CD39 extracellular domain (rhCD39-ECD-His); assay: Binding kinetics to recombinant CD39 ECD by biolayer interferometry (Octet)
From the text: FIG. 1 provides a table showing monovalent affinity of anti-huCD39 antibodies to recombinant human CD39 extracellular domain. The table provides binding kinetics of anti-CD39 antibodies interacting with soluble recombinant human CD39 (ENTDP1) extracellular domain (ECD) by biolayer interferometry (ForteBio Octet). Anti-CD39 antibodies were captured on an anti-human Fc sensor and exposed to recombinant human CD39 ECD at concentration ranging from 10-300 nanomolar. The kinetic data was globally fit with a simple 1:1 Langmuir binding model to yield on-rate (kon) and off-rate (koff) values. The equilibrium dissociation constants (KD) were calculated from the kon and koff values.
Binding kinetics were measured using the Octet Red96 system (ForteBio) at 25° C. in running buffer (1× Pall ForteBio Kinetics Buffer diluted into PBS or Tris pH 7.4). In brief, 1.25 mg/ml of unlabeled anti-hCD39 antibodies were immobilized onto anti-human Fc sensors. After a short baseline step in running buffer, the sensors were exposed to varying concentrations (10-300 nM) of rhCD39-ECD-His (R&D Systems) for the association step. Dissociation of the complex was monitored upon exposure of the sensors to running buffer once again. […] KD was calculated from the ratio of kd to ka.
PF=poor fit. […] The equilibrium dissociation constants (KD) were calculated from the kon and koff values.

hCD39-ECD = biological target: T2, hCD39-ECD; assay: rhCD39-ECD ATPase inhibition (Malachite Green free phosphate); type: biochemical; design: purchased R&D Systems; details: 50 μg/ml antibody; 10 μM ATP; vs isotype or buffer controls
Protocol: 0.04-3.3 nM rhCD39-ECD (R&D Systems) was incubated with buffer, 50 μg/ml antibody or 100 μM POM-1 (Alpha Aesar) for 1 hr at 37° C. in assay buffer (25 mM Tris pH 7.5, 5 mM CaCl2) at which point ATP (Sigma) was spiked in to a final concentration of 10 μM, and the reaction further incubated for 30 min 37° C. Production of free phosphate (Pi) was subsequently measured using Malachite Green Phosphate Detection kit (R&D Systems).
(§1) Also, an 18 hour incubation was used with the antibody or isotype control. Finally, an additional 30 second baseline dip in buffer between antigen capture and dipping into a second competitor antibody for 300 seconds was used.

[2] = biological target: T3, human CD39 on CHO CD39 cells; assay: Binding to CHO cells expressing human CD39 (flow cytometry)
Protocol: Binding of anti-CD39 IgGs to Chinese Hamster Ovary K1 (CHO) CD39 cells. 100 nanomolar IgGs (each antibody is indicated as a unique clone number in the FIG.) were incubated at 25° C. for 30 minutes on ice in phosphate buffered saline (PBS) with parental CHO cells or CHO cells engineered to express either human or cynomolgus macaque (Macaca fascicularis) CD39 (CHO CD39 cells). Cells were then washed with ice cold PBS and incubated with a fluorescently labeled goat-anti-human IgG for 20 minutes on ice. Cells were washed and resuspended in ice cold PBS prior to analysis by flow cytrometry. Fold over background binding levels represent the ratio of median fluorescence intensity (MFI) values for anti-CD39 antibodies binding to CHO CD39 to MFI values for anti-CD39 antibodies binding to the parental CHO cells.

[3] = biological target: T4, CD39 expressed on MEL-28 cells; assay: Cellular CD39 ATPase inhibition (Malachite Green), Example 15; type: cell-based
Protocol: Indicated cells were incubated in assay buffer with 10-25 μg/ml antibody, 100 μM POM-1 or 100 μM ARL for 30 min at 37° C. 5% CO2. ATP was added to a final concentration of 50 μM and the incubation continued for 15 min. Supernatant was evaluated for free phosphate (Pi) using the Malachite Green Phosphate Detection kit. Palivizumab is used as an isotype control and POM-1 and ARL are non-specific small molecule inhibitors of CD39.
as §1

[4] = biological target: T5, human-mouse CD39 chimeras; assay: Binding to human-mouse CD39 chimeras and point mutants expressed in CHO cells (FACS); details: 15 μg/ml antibody
Protocol: Chimeras were generated by replacing human CD39 with mouse CD39 sequence in mammalian expression vectors. The chimeras were expressed in CHO cells and the ability of anti-human CD39 antibodies to bind the chimeras tested via FACS. In brief, cells were washed and blocked in FACS buffer (PBS/2% FBS) for 30 min on ice. They were then incubated with 15 μg/ml anti-human CD39 antibodies diluted in FACS buffer×1 h on ice. After 2 washes, cells were incubated with fluorescently labeled anti-human Fc antibodies, anti-mouse Fc antibodies, or anti-mCD39 antibody (R&D Systems 495826) diluted in FACS buffer per manufacturers' instructions×30 min on ice. After 2 washes, cells were resuspended in FACS buffer and analyzed on BD Fortessa. Data was processed with FlowJo. Positive binding was scored as “yes” and lack of binding was scored as “NO” and examples of FACS plots used to generate this table are in FIGS. 14.F and 14.G.
Chimeras were generated by mutagenesis of Chimera #2 or WT hCD39 expression vectors. Residues for mutagenesis were chosen based on divergence between human and mouse CD39. The chimeras were expressed in CHO cells and the ability of anti-human CD39 antibodies to bind the chimeras tested via FACS, as described in FIG. 14E. Table 2. Positive binding was scored as “Yes” and lack of binding was scored as “No” and examples of FACS plots used to generate this table are in FIGS. 14.F and 14.G.

Row | Molecule | binding to soluble recombinant human CD39 ECD (in words) [1] | inhibition of ATPase activity of soluble hCD39 ECD (μM Pi) (hCD39-ECD) | binding to cellular human CD39 (in words) [2] | inhibition of ATPase activity of CD39 expressed on MEL-28 cells ([3]; 10-25 μg/ml antibody, 50 μM ATP, vs isotype control) | inhibition of cellular CD39 ATPase activity ([3]; cell line not given) | binding to Chimera #2 (human E143-N158 replaced by mouse sequence) [4]
1 | B1 | can bind ECD and cellular CD39; also recorded: binds both ECD (FIG. 1) and cells well | able to inhibit the hydrolysis of ATP by hCD39 ECD; also recorded: directly inhibit the ATPase activity of sol CD39 ECD; also recorded: can only inhibit ECD ATPase activity | can bind ECD and cellular CD39; also recorded: being able to bind to CD39 expressed on cells; also recorded: binds both ECD (FIG. 1) and cells well | unable to inhibit | does inhibit cellular CD39; also recorded: can only inhibit ECD ATPase activity | –
2 | B2 | – | – | – | – | – | inability to recognize Chimera #2

— patent US20190062448A1, “ANTI-CD39 ANTIBODIES, COMPOSITIONS COMPRISING ANTI-CD39 ANTIBODIES AND METHODS OF USING ANTI-CD39 ANTIBODIES” (Tizona Therapeutics, priority 2017, published 2019)
